Test results from PubChem BioAssay AID463173 (ICCB-Longwood Screening Facility, Harvard Medical School, 2010).
Out of some 52,000 compounds screened, about 1,700 (3.3%) were called active. Cut-off read from the data, not from the text of the source: active = survival mostly below about 52% (no sharp cut-off); inactive = mostly above about 56%. The list shows a part of the results.

What follows are compounds tested on Wild type (assay: growth inhibition of S. aureus wild type versus tarO mutant, primary screen, teichoic acid synthesis inhibitors, RN4220, OD600 (AID 463173)). Details: S. aureus RN4220 wild type/DeltatarO growth, OD600, 18 h, hits give low values, screened at 18.75 µg/mL (by protocol).

SMILES	survival
COc1ccc(NC(=O)Nc2cc(-c3cn4cccnc4n3)ccc2OC)cc1	inactive: 105%
Cc1ccc(CN2c3ccccc3-c3nc(SCC(=O)Nc4c(C)cc(C)cc4C)ncc3S2(=O)=O)cc1	inactive: 133%
CCOc1ccccc1C(=O)N1CC(=O)Nc2ccc(C)cc2C1c1ccccc1 (configuration not stated)	inactive: 138%
CCOc1ccccc1NC(=O)N1CCc2c(sc3c2CCCC3)C1c1ccccc1 (configuration not stated)	inactive: 75%
Cc1nn2c(=O)cc(COc3ccc(/C=C(\C#N)C(=O)Nc4ccccc4)cc3Cl)nc2s1	inactive: 81%
O=C(OCc1ccccc1Cl)c1ccc(-c2nnn(Cc3ccc(F)cc3)n2)cc1	inactive: 160%
Brc1ccc2c(c1)NC(c1cccnc1)=NC(c1ccccc1)=N2	inactive: 116%
O=c1oc2ccccc2cc1-c1nc2c(s1)CCCC2	inactive: 104%
CCc1cccc(C)c1Nc1c(-c2cccs2)nc2nc(C)cc(C)n12	inactive: 75%
CCOC(=O)c1csc2c1CCC/C2=N/OC(C)=O	inactive: 107%
CCOc1cc(C(=O)NCc2nc(-c3cccc(C)c3)no2)cc(OCC)c1OCC	inactive: 89%
COC(=O)c1ccccc1NC(=O)c1cc(CN2CCOCC2)on1	inactive: 99%
CCN(CC)c1ccc(NC(=O)CCS(=O)(=O)c2ccc3c(c2)oc(=O)n3C)c(C)c1	inactive: 73%
Cc1ccc(CNc2ncnc3onc(C)c23)cc1	inactive: 136%
CC(=C1C(=O)c2ccccc2C1=O)N1CCN(CCO)CC1	inactive: 114%
O=C(CSc1nc2ccccc2nc1Cc1ccccc1F)Nc1cccc(C(F)(F)F)c1	inactive: 57%
COc1ccc(-c2cc3nc(C)c(CCC(=O)N4CCN(c5ccccc5F)CC4)c(C)n3n2)c(OC)c1	inactive: 70%
Cc1ccc(NC(=O)Cn2c(=O)oc3cc(S(=O)(=O)N4CCCCC4)ccc32)c(C)c1	inactive: 94%
CCC(=O)Nc1ccc(CC)cc1-c1nc2ccccc2n(CC(=O)Nc2ccccc2C)c1=O	inactive: 88%

SMILES	survival
N#Cc1c2c(c(-n3ccnc3)n3c1nc1ccccc13)CCC2	inactive: 105%
COc1ccc(-c2onc(C)c2C)cc1S(=O)(=O)Nc1cc(Cl)ccc1C	inactive: 82%
CC(C)OCCCn1c(=O)c2ccccc2n2c(-c3cc(Cl)ccc3O)nnc12	inactive: 94%
COCC(=O)NC1CCN(Cc2nnnn2Cc2ccc3c(c2)OCO3)CC1	inactive: 128%
NC(Cc1c[nH]c2ccccc12)C(=O)NCc1ccccc1 (configuration not stated)	inactive: 104%
CCCOc1ccc(C2c3c(-c4ccccc4O)n[nH]c3C(=O)N2Cc2cccnc2)cc1 (configuration not stated)	active: 3%
COc1cc2c(cc1OC)C(COc1ccc(F)cc1)N(C(=O)Cc1ccccc1)CC2 (configuration not stated)	inactive: 72%
CCOc1ccc(-c2cc(C(=O)NCCCOC)c3c(-c4ccc(CC)cc4)[nH]nc3n2)cc1	inactive: 71%
COc1cc(C(=O)Nc2ccc(-c3nc4ccccc4o3)c(O)c2)cc(OC)c1OC	inactive: 129%
Cc1cn2c(=O)cc(COC(=O)c3ccc(NC(=O)COc4ccc(C)c(C)c4)cc3)nc2s1	inactive: 63%
CCc1ccccc1NC(=O)CSc1nnc(COc2ccccc2Cl)o1	inactive: 69%
CCc1ccccc1NC(=O)CN1C(=O)c2cccnc2Sc2ccccc21	inactive: 117%
CCn1c(=O)c2sccc2n2c(CCC(=O)Nc3ccc(OC)cc3OC)nnc12	inactive: 68%
O=c1c2ccccc2n(Cc2c(F)cccc2Cl)c(=O)n1Cc1ccccc1	inactive: 40%
COCc1nc2ccccc2n1Cc1cccc(C)c1	inactive: 81%
CCn1c(=N)c(C(=O)NCC2CCCO2)cc2c(=O)n3cc(C)ccc3nc21 (configuration not stated)	inactive: 84%
O=S(=O)(NCC(c1ccccc1)N1CCc2ccccc21)c1ccccc1 (configuration not stated)	inactive: 83%
CC(NC(=O)CSc1nc(-c2cccc(Cl)c2)nc2cc(=O)[nH]n12)c1nc2ccccc2n1C (configuration not stated)	inactive: 54%
COc1ccc(-c2nc3ccccc3s2)cc1NC(=O)c1cccc([N+](=O)[O-])c1C	inactive: 65%

SMILES	survival
NC(=O)NC(=O)c1nc2nonc2[nH]c1=O	inactive: 101%
Cc1ccc(Cn2c(CNC(=O)Cc3cccc([N+](=O)[O-])c3)nc3cccnc32)cc1	inactive: 67%
CCCOc1ccc(NC(=O)CC2C(=O)N(c3ccc(F)cc3)C(=O)N2CC(C)C)cc1 (configuration not stated)	inactive: 75%
O=C(NCc1cccs1)C1CCN(c2ccc(S(=O)(=O)N3CCOCC3)cc2Cl)CC1	inactive: 102%
CCn1c(=O)cc(OCC(=O)N2CCN(c3cccc(Cl)c3)CC2)c2ccccc21	inactive: 127%
Cc1ccc(S(=O)(=O)N2CCN(Cc3ccc4c(c3)OCO4)CC2)cc1	inactive: 64%
CCc1ccc(-c2cc(C)no2)cc1S(=O)(=O)Nc1cc(OC)c(OC)c(OC)c1	inactive: 83%
COc1ccc(C2=C(C)C(=NCc3ccc(OC(C)C)cc3)NS2(=O)=O)cc1	inactive: 86%
Cc1ccc2c(c1)sc1nc(=O)n(-c3ccc(Cl)c(Cl)c3)c(=O)n12	active: -4%
NC(=O)c1cc(N)ccc1N1CCOCC1	inactive: 111%
COc1cc(C(=O)N2CCC(c3nc4ccccc4s3)CC2)cc(OC)c1OC	inactive: 84%
CCCCOc1ccc(CNC(=O)C2CCCN(c3nnc(-n4c(C)ccc4C)s3)C2)cc1 (configuration not stated)	inactive: 70%
CC(=O)Nc1ccc(S(=O)(=O)Nc2cccc(-c3ccc(N4CCCCCC4)nn3)c2)cc1	inactive: 59%
O=C(NC1CCN(C(=O)Nc2cccc(Cl)c2)CC1)C1CCCCC1	inactive: 99%
CC(C)(C)NC(=O)CSc1nc(O)cc(=O)[nH]1	inactive: 106%
COc1ccc(C(=O)NCCn2cc(SCC(=O)Nc3ccc(F)cc3)c3ccccc32)cc1	inactive: 79%
CCNc1ccc(-c2nc(-c3ccncc3)no2)cc1[N+](=O)[O-]	inactive: 93%
CCn1cc(C(=O)NCCc2ccc(Cl)cc2)c(=O)c2cc(S(=O)(=O)N3CCCCCC3)ccc21	inactive: 80%
Cc1nc(-c2ccc(S(=O)(=O)NCc3ccc(OC(C)C)cc3)cc2)co1	inactive: 69%
